From the RNAGym collection of RNA variant scans (doi:10.7554/elife.90254)
The source gives no read counts; variants with many changes may rest on few reads.

B1: LINE1-full (parent)
chain: UACGUAGGUGGUUUUCCCCUGAUAGUGCUAAGGGGGCCUGGAAGUUUGGACUGGGCAGAGCUCAACACAGCGUGGCAAAGUGGCUGUGGCUAGACUGCCUCUCUGGAUUCCUCGUCACUCAGCAGGGCAUCUCUGAGAGAAAUGCC

Variants of: B1
Test: self-cleavage, relative activity (ratio to wild type); higher = more cleavage; in vitro, sequencing; the parent is a self-cleaving ribozyme

Variant | self-cleavage
UACGUAGGUGGUUUUCCCCUGAUAGUGCUAAGGGGGCUUGGAAGUUUGGACUGGGCAGAGCCCAACACAGCGUGGCAAAGUGGCUGUGGCCAGACUGCCUCUCUGGAUUCCUCGUCACUCAGCAGGGCAUCUCUGAGAGAAAUGCC [C38U U62C U91C] | 0.09
UACGUAGGUGGUUUUCCCCUGAUAGUGCUAAGGGGGCCUGGAAGUUUGGACUGGGCAGAGCUCAACACAGCGUGGCAAAGUGGCUGUGGCUAGACUGCCUCUCUGGACUCCUCGUCACUCAGCAGGGAAUCUCUGAGAGAAAAGCC [U108C C128A U143A] | 1.92
UACGUAGGUGGUGUUCCCCUGAUAGUGCUGAGGGGGCCUGGAAGUUUGAACUGGGCAGAGCUCAACACAGCGUGGCAAAGUGGCUGUGGCUAGACUGCCUCUCUGGAUUCCUCGUCACUCAGCAGGGCAUCUCUGAGAGAAAUGCC [U13G A30G G49A] | 0.81
UACGUAGGUGGUUUUCCCCUGUUAAUGCUAAGGGGGCCUGGAAGUUUGGACUGGGCAGAGCUCAACACGGCGUGGCAAAGUGGCUGUGGCUAGACUGCCUCUCUGGAUUCCUCGUCACUCAGCAGGGCAUCUCCGAGAGAAAUGCC [A22U G25A A69G U134C] | 0
UACGUAGGUGGUUCUCCCCUGAUAGUGCUAAGGGGGCCUGGAAGCUUGGACUGGGCAGAGCUCAACACAGCGUGGCAAAGUGGCUGUAGCUAGACUGCCUCUCUGGAUUCCUCGUCACUCGGCAGGGCAUCUCUGAGAGAAAUGCC [U14C U45C G88A A121G] | 0
UACGUAGGUGGUUUUCCCCUGAUAGUGCUAAGGGGGCCUGGAAGUUUGGACUGGGCAGAGCUCAACACAGCGUGGCAAAGUGGCUGUGGCCAGACUGCCUCUCAGGAUUCCUCGUCACUCAGCAGGGCAUCUCUGGGAGAGAUGCC [U91C U104A A136G A141G] | 0.41
UACGUAGGUGGUUUUCCCCUGAUAGUGCUAAGGGGGCCUGGAAGUUUGAACUGGGCAGACCUCAACACAGCGUGGCAAAGUGGCUGUGGCUGGACUGCCUCUCUGGAUUCCUCGUCACUCAGCAGGGCAUCUCUGAGAGGAACGCC [G49A G60C A92G A140G U143C] | 0
UACGUAGGUGGUUUUCCCCUGUUAGUGCUAAGGGGGCCUGGAAGUUUGGACUGGGCAGAGCUCGACACAGCGUGGCAAAGUGGCUGUGGCUAGACUGCCUCUCUGGAUUCCUCGUCACUCAGCAGGGCAUCCCUGAGAGAAAUGCC [A22U A64G U132C] | 0.27
UACGUAGGUGGUUUACCCCUGAUAGUGCUAAGGGGGCCUGGAAGUUUGGACUGGGCAGAGCUCAACACAGCGUGGCAAAGUGGCUGUGGCUAGACUGCCUCUCUGGAUUCCUCGUCACUCGGCAGGGCGUCUCUGAGAGAAAUGCC [U15A A121G A129G] | 0
UACGCAGGUGGUUUUCCCCUGAUAGUGCUAAGGGGGCCCGGAAGUUUGGACUGGGCAGAGCUCAACACAGCGUGGCAAAGUGGCUGUGGCUAGACUGCCUCUCUGGAUUCCUCGUCACUCAGCAGGGCAUCUCAGAGAGAAAUGCC [U5C U39C U134A] | 0
UACGUAGGUGGUUUUCCCCUGAUAGUGCUAAGGGGGCCUGGAAGUAUGGACUGGGCAGAGCUCAACACAGCGUGGCAAAGUGGCUGUGGCUAGACUGCCUCUCAGGAUUCCUCGUCACUCAGCAGGGCAUCUCUGAGAGAGGUGCC [U46A U104A A141G A142G] | 1.49
UGCGUAGGUGGUUUUCCCCUGAUAGUGCUAAGGGGGCCUGGAAGUUUGGACUGGGCAGAGCUCAACACAGCGUGGCAAAGUGGCUGUGGCUAGACUGCCUCUCUGGAUUCCUCGUCACUCAGCAGGGCAUCUCUGAGGGAAAAGCC [A2G A138G U143A] | 1.12
UACGUAGGUGGUCUUCCCCUGAUAGUGCUAAGGGGGCCUGGAAGUUUGGACAGGGCAGAGCUCAACACAGCGUGGCAGAGUGGCUGUGGCUGGACUGCCUCUCUGGAUUCCUCGUCACUCAGCAGGGCAUCUCUGAGAGAAAUGCC [U13C U52A A78G A92G] | 0.18
UACGUAGGUGGUUUUCCCCUGAUAGUGCUAAGGGGGCCUGGAAGUUUGGACUGGGCAGAGCUCAACACAGCGUGGCAAAGUGGCCGUGGCUAGACUGCCUCCCUGGAUUCCACGUCACUCAGCAGGGCAUCUCUGAGAGAAAUGCC [U85C U102C U112A] | 0.13
UACGUAGGUGGUUUUCCCCUGAUAGUGCUAAGGGGGCCUGGAAGUUUGGACUGGGCAGAGCUCAACACAGCGUGGCAAAGUGGCUGUGGCUGGACUGCCUCUCUGGAUUCCUCGUCACUCAGCGGGGCAUCUCUGAGGGAAAUGCC [A92G A124G A138G] | 0
UACGUAGGUGGUUUACCCCUGAUAGUGCUAAGGGGGCCUGGAAGUUUGGACUGGGCAGAGCUCAACACAGCGUGGCAAAGUGGCUGUGGCUAGACUGCCUCUCUGGAUUCCUCGUCACUCAGCAGGGCAUCUCUGAGGGAGAUGCC [U15A A138G A141G] | 2.1
UACGUAGGUGGUUUUCCCCUGAUAGUGCUGAGGGGGCCUGGAAGUUUGGACUGGGCAGAGCUCAACACAGCGUGGCAAAGUGGCUGUGGCUAGACAGCCUCUCUGGCUCCCUCGUCACUCAGCAGGGCUUCUCUGAGAGGAAUGCC [A30G U96A A107C U109C A129U A140G] | 0
UACGUAGGUGGUUUUCCCCUGAUUGUGCUAAGGAGGCCUGGAAGUUUGGACUGGGCAGAGCUCAACACAGCGUGGCAAAGUGGCUGUGGCUAGACUGCCUCUCUGGAUUCCUCGUCACUCAGCAGGGCAUCUCUGAGGGAAAUGCA [A24U G34A A138G C146A] | 1.51
UACGUAGGUGGUUUUCCCCAGAUAGUGCUAAGGGGGCCUGGAAGUUUGGACUGGGCAGAGCUCAACACAGCGUGGCAAAGUGGCUGUGGCUAGACUGCCUCUCUGGAUUCCUCGUCACUCAGCAGGGCAUCUCCGAGAGAAAAGCC [U20A U134C U143A] | 1.52
UACGUAGGUGGUUUUCCCCUGAUAGUGCUAAGGGGGCCUGGAAGUUUGGACUGGGCGGAGCUCUACACAGCGUGGCAAAGUGGUUGUGGCUAUGCUGCCCCCCUGGAUUCCUCAUCACUCAGCAGGGCAUCUCUGAGAGGAAUGCC [A57G A64U C84U G93U A94G U100C U102C G114A A140G] | 0
